# Data as given in the supplement of paper PMC3334620.
# Whole data set: some 33,000 sequences, median “E-score (-0.5 to 0.5)” near -0.016, cut for the highest 2% near 0.31. The list shows a part of the results.
# Target: Cst6 (UniProt P40535)
# Assay: PBM E-score (8-mer binding enrichment) (E-score (-0.5 to 0.5)); higher = stronger / more preferred TF binding; most listed sequences are background and not binding sites
# Settings: protein concentration: 200 nM; construct: GST-DNA-binding domain
# In short: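 Yeast transcription factors carrying a GST tag, as full-length proteins or DNA-binding domains, were produced by PURExpress in vitro transcription/translation. About 100-200 nM protein was applied to universal all-10-mer Agilent arrays, double-stranded by primer extension on fresh or once-stripped slides. Bound protein was detected with fluorescent anti-GST, and scans were normalised with masliner. The Universal PBM Analysis Suite gave each ungapped eight-base word, pooled with its reverse complement, an E-score, a modified Wilcoxon-Mann-Whitney statistic.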
row,Sequence,PBM E-score
1,CCTCCCGA,-0.29
2,CTACCCGC,-0.189
3,GTCTGTAA,0.0809
4,GGATGGAC,-0.168
5,CATTCTGA,0.105
6,ACAGTTCA,0.0816
7,CACCCTAA,0.074
8,GCGCTCAA,-0.165
9,AATCATCT,0.114
10,CCTGGTCA,-0.248
11,AGATCGTG,0.0248
12,AAGGCCCA,-0.168
13,CACGCATG,-0.0721
14,TTCTGCAA,0.138
15,ATATGCTC,0.0642
16,ATACGCAT,0.0826
17,CACGGCGG,0.245
18,CTATACGA,-0.0464
19,ACCTATCA,-0.0999
20,ACCTAGTA,-0.284
21,AAGATAAG,0.225
22,GGGCTGTA,-0.256
23,TACCGGTA,-0.149
24,AGACGATA,0.0849
25,AATGCGGA,0.0319

row,Sequence,PBM E-score
1,CTGAGTCA,0.0612
2,AACCAAGT,0.11
3,ATGTGACC,0.0452
4,ATGAGAGA,0.108
5,AAGCAGGA,-0.01
6,CCATATGG,-0.0766
7,GGCCTTAA,-0.0387
8,TCTGCCAA,-0.144
9,GGTCCCAA,-0.198
10,CGACTGGA,-0.251
11,CCCCCAGC,-0.408
12,CATACCGA,0.086
13,AGACCTGC,-0.208
14,AACCGAAA,0.142
15,AAGACTTA,0.0218
16,AGTCTGCC,-0.298
17,ACTAATCG,0.0495
18,GAGCACGA,-0.0545
19,CGCGCTAG,-0.027
20,GATGATCA,0.171
21,GCCATACA,0.0782
22,ATCCACAC,-0.229
23,TACTTCCA,0.0584
24,AAGTGTCG,-0.00286
25,CGTCGGTC,0.0158

row,Sequence,PBM E-score
1,CCCCTTGA,-0.0084
2,TAGGTTCA,-0.0454
3,AGCTAGAT,-0.0478
4,ATAGGAGA,-0.149
5,GGCCGTAA,-0.0126
6,AGAATGCA,-0.00432
7,CGGCATGC,0.0398
8,GTTAGCTA,-0.109
9,CCGGAATA,-0.181
10,GTTAAGCA,-0.0243
11,GCAGACAC,0.0507
12,ATCAAATG,0.0892
13,GTGGTTAA,0.146
14,GCGGGGAC,-0.156
15,AGGTATAA,0.0758
16,CGTCGTGC,0.139
17,AATGTAAA,0.258
18,ACTAGGGG,-0.301
19,TGCCTACA,-0.0823
20,GAACATGC,-0.095
21,CAATCGCC,0.0827
22,AGCGATCG,0.0232
23,ATCAGCAC,0.0767
24,AATTCAAT,0.229
25,AGTCGAAC,-0.108

row,Sequence,PBM E-score
1,ACGAAATC,0.195
2,GGGCGTCA,0.264
3,GCCGCCAA,-0.227
4,GATTTCAC,0.189
5,CGCAAATA,0.144
6,CCCTCACC,-0.17
7,GATAATAC,0.125
8,ATACATAT,0.337
9,AATGTAAG,0.192
10,ACGCAGGA,-0.0261
11,AAGAGGGG,-0.193
12,CCGCGTCG,0.0654
13,GCTTTAAA,-0.00551
14,GCGCGGCC,0.167
15,ACGCCCTG,-0.0252
16,CATGCGCA,0.0549
17,AATGGGCT,-0.182
18,TGGGGTAA,0.0474
19,CCGACGCA,-0.207
20,AACCGGAA,-0.205
21,ACCCAATA,-0.034
22,AGCGCTGC,-0.158
23,CAACACAA,0.148
24,ATAACATG,0.0453
25,GGCTCGTA,0.00132

row,Sequence,PBM E-score
1,GTTTACAA,0.0819
2,CTCATTAC,0.25
3,TCCGCCAA,-0.07
4,GGCATGCA,0.0998
5,ACGGCCTC,-0.0387
6,ACTTGCTG,0.0369
7,AACCCTAC,-0.229
8,ATGGACCC,-0.241
9,ATTATACG,0.263
10,CATGTGTA,0.0219
11,AGGCCAAG,-0.292
12,AGGAGCAC,-0.136
13,AACAGGGA,-0.00771
14,CGAATGCA,0.0771
15,CAGAGTGC,-0.0946
16,AGCCTCTA,-0.347
17,CCCACCCC,0.0879
18,ACATCTTG,-0.101
19,AGATATTC,0.0543
20,AATAAACG,0.157
21,ACAAATAC,0.206
22,ATCGGGAC,-0.126
23,CGTCTCCA,0.0599
24,AAGGGATC,-0.0719
25,CGGAGATA,0.0608

row,Sequence,PBM E-score
1,AGGAGCTA,-0.0935
2,AGTCCAGA,-0.125
3,ATCCCGTA,-0.00151
4,CAGCACCG,-0.101
5,CTGAAGAC,-0.13
6,CCGAGTAA,-0.0295
7,GGTCACAC,-0.0298
8,ACGACTTA,-0.124
9,GACTGCAC,-0.16
10,CCAGACAA,-0.0545
11,TACTACGA,0.155
12,TAACCCGA,-0.172
13,TCCTCTAA,-0.153
14,TAGGGTGA,0.135
15,CTACCCTA,-0.177
16,ACTCATTC,0.103
17,GTATATTA,0.261
18,CGCTATCC,-0.0161
19,AGGTCTAC,-0.216
20,TCTCCAAA,-0.032
21,AAAGGCTT,-0.0374
22,AATGTTGA,0.13
23,TGATAGAA,0.006
24,GATTCTTA,0.281
25,AAGTGCTG,0.00351

row,Sequence,PBM E-score
1,ACTCTAAG,-0.183
2,CGATTGCA,0.0317
3,ACTAGTCG,-0.164
4,CCCCTTAG,-0.377
5,AACAACCC,0.00425
6,CTGTCCTA,-0.219
7,GATTCGTA,0.0958
8,CATCGAAG,0.19
9,AATTCTGG,-0.0752
10,ATTCGTGC,0.22
11,ATCTAGTA,0.224
12,GTCCGTAA,-0.0688
13,CCGGAGAA,-0.258
14,CGTGTGAC,0.23
15,GCCATCCA,-0.118
16,ATCAGGGA,-0.0907
17,AAGTTGGC,-0.0387
18,ATGCTATG,0.212
19,GCTGTTCC,-0.281
20,GAGCTTAA,-0.185
21,CTTCCACC,-0.0668
22,CCGGTACG,-0.27
